# Data taken from US8580254B2, “Anti-IGF antibodies” (Boehringer Ingelheim International GmbH, priority 2007, dated 2013).
# B1: antibody 40186: fully human IgG1/Igλ antibody binding IGF-1 and IGF-2; heavy chain SEQ ID NO:25, light chain SEQ ID NO:26 (antibody, listed as Homo sapiens)
# heavy: QVELVESGGGLVQPGGSLRLSCAASGFTFSNYWMHWVRQAPGKGLEWVSGISGWSSWTYYADSVKGRFTISRDNSKNTLYLQMNSLRAEDTAVYYCARFGIDAYTKVYFDYWGQGTLVTVSS[in this place human IgG1 constant region]
# light: DIELTQPPSVSVAPGQTARISCSGDNIPLKYVSWYQQKPGQAPVLVIHDDNKRPSGIPERFSGSNSGNTATLTISGTQAEDEADYYCQSWASTGVVFGGGTKLTVLGQPKAAPSVTLFPPSSEELQANKATLVCLISDFYPGAVTVAWKGDSSPVKAGVETTTPSKQSNNKYAASSYLSLTPEQWKSHRSYSCQVTHEGSTVEKTVAPTECS
# What was measured:
# [1] = tested on: insulin stimulated COLO 205 cell growth; experiment: COLO 205 cell growth assay (CellTiter-Glo); format: cell-based, human; settings: FIG. 3C
# rat IGF-1 = target: T1, rat IGF-1 (Rattus norvegicus, UniProt P08025); experiment: ELISA binding titration of IgG1 antibodies; settings: FIG. 1E
# T1 construct: Insulin-like growth factor-1 (IGF-1; a 70 amino-acid polypeptide)
# Experimental: (§1) ELISA screening for IGF-1 positive Fab clones is performed by coating Maxisorb 384-well plates overnight at 4° C. with 5 μg/ml recombinant human IGF-1 (Gropep) in 1× coating buffer (Gibco). Wells are washed with 1×TBS-T and blocked with 1× Blocking Buffer (Gibco) for 1 h at room temperature. Bacterial lysates containing antibody Fab fragments are added for 1.5 hr at room temperature, then washed five times with 1×TBS-T and detected with Alkaline Phosphatase-conjugated Affini Pure Goat Anti-HumanIgG F(ab′)2. Fragment Specific Mab (Dianova) at a dilution of 1:10 000 and visualized with Attophos Substrate (Roche). Fluorescence readings are performed on Tecan fluorescence reader at excitation 430 nm and emission 535 nm.
# (§2) Cross-reactivity to recombinant human IGF-1, murine IGF-1, murine IGF-2 (R&D Systems), recombinant human IGF-2, rat IGF-1, rat IGF-2 (Gropep) and recombinant human insulin (Roche) is performed by ELISA using the same procedure as above, but with a 1 μg/ml coating dilution.
# rat IGF-2 = target: T2, rat IGF-2 (Rattus norvegicus, UniProt P01346); experiment: ELISA binding titration of IgG1 antibodies; settings: FIG. 1F
# T2 construct: insulin-like growth factor-2 (IGF-2; a 67 amino-acid polypeptide)
# Experimental: as §1, §2
# murine IGF-2 = target: T3, murine IGF-2 (Mus musculus, UniProt P09535); experiment: ELISA binding titration of IgG1 antibodies; settings: FIG. 1D
# T3 construct: insulin-like growth factor-2 (IGF-2; a 67 amino-acid polypeptide); purchased R&D Systems
# Experimental: as §1, §2
# human IGF-2 [2] = target: T4, human IGF-2 (Homo sapiens, UniProt P01344); experiment: ELISA binding titration of IgG1 antibodies; settings: FIG. 1B
# T4 construct: insulin-like growth factor-2 (IGF-2; a 67 amino-acid polypeptide)
# Experimental: as §1, §2
# murine IGF-1 = target: T5, murine IGF-1 (Mus musculus, UniProt P05017); experiment: ELISA binding titration of IgG1 antibodies; settings: FIG. 1C
# T5 construct: Insulin-like growth factor-1 (IGF-1; a 70 amino-acid polypeptide); purchased R&D Systems
# Experimental: as §1, §2
# human IGF-1 [3] = target: T6, human IGF-1 (Homo sapiens, UniProt P05019); experiment: ELISA binding titration of IgG1 antibodies; settings: FIG. 1A
# T6 construct: Insulin-like growth factor-1 (IGF-1; a 70 amino-acid polypeptide)
# Experimental: as §1, §2
# SK-N-MC = experiment: Ewing sarcoma-derived cell line growth assay; format: cell-based, human; settings: medium containing 10% FCS; 120 hours; relative to humanized isotype control antibody; FIG. 5B
# Experimental: The Ewing sarcoma-derived cell lines TC-71 (ATCC #ACC516) and SK-N-MC (ATCC #HTB86) are plated in 96-well plates at a density of 1000 cells per well in DMEM medium containing 1×NEAA, 1× sodium pyruvate, 1× glutamax and 10% fetal calf serum (FCS) and incubated overnight at 37° C. and 5% CO2 in a humidified atmosphere. The following day, a serial dilution of test antibody and humanized isotype control antibody (a humanized IgG1 antibody targeted to CD44-v6) are added to the cells. The typical concentrations used are 10, 3.33, 1.11, 0.37, 0.13 and 0.04 μg/ml and each dilution is performed in triplicate wells. The cells plus antibody are then incubated for 120 hours after which time the relative cell number in each well is determined using the CellTiter-Glo luminescent cell viability assay (Promega). Luminescence is recorded using a XFluor GENios Pro 4 and for data analysis the mean value from triplicate wells is taken and fitted by iterative calculations using a sigmoidal curve analysis program (Graph Pad Prism) with variable Hill slope.
# [4] = tested on: IGF-2 stimulated COLO 205 cell growth; experiment: COLO 205 cell growth assay (CellTiter-Glo); format: cell-based, human; settings: 10 ng/ml IGF-2; antibody 5 and 30 μg/ml; 5 days; FIG. 3B
# Experimental: (§3) The COLO 205 colon cancer-derived cell line (ATCC # CCL-222) is plated in 96-well plates at a cell density of 1000 cells per well in serum-free RPMI medium. 10 ng/ml of either IGF-1 or IGF-2 is added in the presence or absence of a control antibody or antibodies 40183 and 40186 at concentrations of 5 and 30 μg/ml. Cells are cultured for 5 days then the cell number in each well determined using the CellTiter-Glo luminescent cell viability assay (Promega). Luminescence was recorded using a XFluor GENios Pro 4.
# [5] = tested on: IGF-1 stimulated COLO 205 cell growth; experiment: COLO 205 cell growth assay (CellTiter-Glo); format: cell-based, human; settings: 10 ng/ml IGF-1; antibody 5 and 30 μg/ml; 5 days; FIG. 3A
# Experimental: as §3
# [6] = target: T7, biotinylated-IGF-1 binding to coated insulin-like growth factor-1 receptor (Homo sapiens, UniProt P05019); experiment: ELISA neutralization of biotinylated IGF-1 binding to coated IGF-1R
# T7 construct: Insulin-like growth factor-1 (IGF-1; a 70 amino-acid polypeptide); purchased R&D Systems (IGF-1R)
# Experimental: To identify IGF antibodies that neutralize the ability of IGF-1 and IGF-2 to bind to the IGF-1R, an ELISA is established by coating plates with 1.5 μg/ml recombinant human IGF-1R (R&D Systems) which allows the binding of biotinylated IGF-1 and biotinylated IGF-2. Bound IGF-1 or IGF-2 is detected using alkaline phosphatase-conjugated streptavidin (1:10,000 dilution) (Roche). The neutralization potency of antibody Fab fragments is measured by adding 0.1-1 μg/ml of Fab to the wells coated with IGF-1R just prior to the addition of biotinylated IGF-1 or IGF-2 ligands. Antibody Fab fragments that block the binding of biotinylated ligand are identified by a reduction in fluorometric signal.
# human IGF-2 [7] = target: T4, human IGF-2; experiment: Surface plasmon resonance (Biacore), IGF coating method; format: binding
# Experimental: (§4) The determination of binding constants of IGF antibodies to IGF ligands when the sensor chip is coated with IGF ligands is essentially performed as described above except that the sensor chip is coated with 35.1 pg/mm^2 and 38.5 pg/mm^2 IGF-1 and IGF-2 respectively. The antibodies are then flowed over the chip at the following concentrations: 50, 25, 12.5, 6.25, 3.12 nM.
# (§5) Affinity constants are also determined for binding of the IGF antibodies to human IGF-1 and IGF-2 using a method where the IGF ligands are coated to the Biacore sensor chip and a range of antibody concentrations injected. The approximately 30-50-fold increase in the binding constants using this method compared with the initial antibody capture method is likely due to an avidity effect where both antibody binding domains interact with an IGF molecule.
# human IGF-1 [8] = target: T6, human IGF-1; experiment: as above; format: binding
# Experimental: as §4, §5
# [9] = human IGF-1, IGF coating method
# T1 sequence (P08025 49-118 limits assumed): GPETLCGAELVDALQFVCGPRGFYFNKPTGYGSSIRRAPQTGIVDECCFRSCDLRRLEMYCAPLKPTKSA
# T2 sequence (P01346 25-91 limits assumed): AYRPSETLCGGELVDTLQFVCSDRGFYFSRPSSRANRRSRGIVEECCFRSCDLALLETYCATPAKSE
molecule,measurement,setting,value
B1,effect on insulin induced COLO 205 cell growth,[1],no effect
same,binding to rat IGF-1 (ELISA),rat IGF-1,concentration dependent binding
same,binding to rat IGF-2 (ELISA),rat IGF-2,concentration dependent binding
same,binding to murine IGF-2 (ELISA),murine IGF-2,concentration dependent binding
same,binding to human IGF-2 (ELISA),human IGF-2 [2],concentration dependent binding
same,binding to murine IGF-1 (ELISA),murine IGF-1,concentration dependent binding
same,binding to human IGF-1 (ELISA),human IGF-1 [3],concentration dependent binding
same,effect on growth of SK-N-MC cells,SK-N-MC,dose-dependent inhibition of cell growth
same,effect on IGF-2 induced COLO 205 cell growth,[4],dose dependent inhibition
same,effect on IGF-1 induced COLO 205 cell growth,[5],dose dependent inhibition
same,"IC50, inhibition of IGF-1 ligand binding to IGF-1R",[6]; FIG. 2,approximately 5 ng/ml
same,IC50,"[6]; FIG. 2, read-out: IC50, inhibition of IGF-1 ligand binding to IGF-1R",~0.03 nM
same,KA,human IGF-2 [7],1.45e+10 M⁻¹
same,kass,human IGF-2 [7],2.26e+06 M⁻¹ s⁻¹
same,kdiss,human IGF-2 [7],0.000164 s⁻¹
same,KA,human IGF-1 [8]; [9],1.22e+10 M⁻¹
same,kass,human IGF-1 [8]; [9],2.1e+06 M⁻¹ s⁻¹
same,kdiss,human IGF-1 [8]; [9],0.00023 s⁻¹
same,"increase in the binding constants, IGF coating method compared with antibody capture method","human IGF-1 [8]; human IGF-1 and IGF-2, likely due to an avidity effect",30-50 fold
